# The full ranking holds about 33,000 sequences; the median of “E-score (-0.5 to 0.5)” is about -0.017, and the highest 2% start at about 0.3. Some of the results follow.
# Biological target: T1, Sut1 (UniProt P53032)
# T1 sequence: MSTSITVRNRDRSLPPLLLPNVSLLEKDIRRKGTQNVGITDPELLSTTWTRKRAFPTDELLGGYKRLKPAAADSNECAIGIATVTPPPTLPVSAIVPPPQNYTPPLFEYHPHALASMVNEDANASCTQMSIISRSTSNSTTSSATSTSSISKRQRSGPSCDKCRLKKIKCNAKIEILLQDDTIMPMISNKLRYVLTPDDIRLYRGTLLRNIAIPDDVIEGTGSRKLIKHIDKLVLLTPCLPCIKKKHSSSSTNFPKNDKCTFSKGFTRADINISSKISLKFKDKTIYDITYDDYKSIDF
# Experiment: PBM E-score (8-mer binding enrichment) (E-score (-0.5 to 0.5)); higher = stronger / more preferred TF binding; most listed sequences are background and not binding sites
# Conditions: protein concentration: 200 nM; construct: GST-full length
# Procedure, shortened: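 Universal all-10-mer Agilent arrays, double-stranded by primer extension on fresh or once-stripped slides, were probed with about 100-200 nM GST-tagged yeast transcription factors made by PURExpress. Fluorescent anti-GST detected bound protein, and masliner normalised the scans. E-scores from the Universal PBM Analysis Suite were given to each ungapped eight-base word pooled with its reverse complement.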
row,Sequence,PBM E-score
1,CGGCTAAC,0.156
2,ATTTACAC,0.0273
3,CCCCATTA,-0.19
4,GAATGTAC,0.145
5,CCGGCCAG,0.00718
6,ATCCGGAC,0.362
7,GATAGAAC,0.06
8,ATTGCTGA,-0.0342
9,AGATCTTC,0.0408
10,ATTGGTTG,-0.0326
11,AAGAACGC,0.024
12,CTCGAGCC,-0.283
13,CCCGGGGA,-0.00446
14,ATAAAAAT,0.252
15,CTGTAATA,0.218
16,AATATCAA,0.163
17,ACAGGTCC,0.0916
18,AGCTTGGA,-0.0995
19,TAACACAA,0.186
20,AGACAAGA,0.0406
21,AACGTCCT,-0.0852
22,AATTGCGA,0.0183
23,CGGTAGAC,0.101
24,GTACTCTA,0.00045
25,GCTGCCGA,-0.0579

row,Sequence,PBM E-score
1,CCGCCTAA,-0.17
2,GAACACTC,0.0251
3,CTTTCGCC,-0.0713
4,AGTAGGTA,0.0123
5,ACAACGCT,-0.159
6,GAAAGTTC,0.0193
7,GAAGATTC,0.171
8,AAGAGTTC,-0.0235
9,GATCGAAA,0.0489
10,TCCTTCGA,0.11
11,ATAAGGTA,0.106
12,GTAAAGCA,0.125
13,ATAAATAC,0.275
14,CCGGGCCA,-0.0793
15,CTACTAAA,0.123
16,CTTGGTTA,0.0382
17,CTGAGTGC,-0.199
18,GACCCGTA,-0.192
19,CGAAACGA,0.161
20,AAGTTTTG,-0.00678
21,GCGGGCGA,0.00688
22,ATAGATGC,0.007
23,AGATCTAC,-0.0245
24,CAGTCGGA,0.204
25,ACCTTATG,0.0125

row,Sequence,PBM E-score
1,TATGATGA,0.189
2,GTCAATAA,0.128
3,CGCTACAA,0.077
4,CGGAGATC,0.445
5,CAACTCTA,0.0751
6,CGGACGGC,-0.0292
7,ATGTGGCA,-0.197
8,AGTTCGCC,0.0621
9,AATGCTAG,-0.155
10,AAGCGATA,-0.147
11,AAGTAATG,0.116
12,CGATTGCG,0.0591
13,CCTTTACC,-0.153
14,CTGCGCCC,-0.393
15,ACTTGATA,0.284
16,GTTATAAA,0.303
17,CTCACAGA,-0.114
18,ATGTAGTG,0.0335
19,AAGACTTG,0.00502
20,GTTAGTAA,0.0675
21,AGTTGCAG,-0.0864
22,AGCCATAG,-0.239
23,AGTGGTGA,0.0435
24,CCGGACGC,0.0297
25,ACAAAACA,0.172

row,Sequence,PBM E-score
1,CTTCCCCC,-0.331
2,ATGCATAC,-0.0233
3,TTACTCAA,0.257
4,AACTCCCG,0.204
5,ATGAAAGA,0.18
6,CATGCCAA,-0.0109
7,ACTCGGCC,-0.162
8,GAGCCATC,-0.145
9,CCCTCCCG,-0.114
10,CCACGAAA,-0.0862
11,ACGCGTTC,-0.093
12,AAATAATC,0.235
13,CGACTCCG,0.47
14,TGGGCAAA,0.0407
15,CTAAAATA,0.157
16,AAAGCGCA,-0.155
17,AGTCCAAA,0.169
18,ATTGTTGC,-0.0508
19,ACTTCAAT,0.249
20,CACCCGAC,-0.101
21,CTGGCGTC,-0.204
22,CCTTTTCA,0.0013
23,AAGCGCCA,-0.309
24,ATTCCCTA,0.11
25,AATAGTCT,0.0832

row,Sequence,PBM E-score
1,AGGCCACT,-0.123
2,TCGCAGAA,-0.0495
3,ACAGTTTC,0.171
4,AACTGCCC,-0.236
5,GCAGTTGA,-0.0138
6,CCCCAGCA,-0.268
7,TACCAAGA,-0.0576
8,ATGTCGGC,-0.128
9,CCAAAACG,0.0306
10,AAGAGCCC,-0.09
11,CCACAGGA,-0.0589
12,TACACCAA,0.0304
13,ACGTACAC,-0.0319
14,AGATGTCA,0.0548
15,TATTATAA,0.252
16,AAAGGGCT,-0.0486
17,ACGCGCGT,0.149
18,AGCCTCGG,-0.012
19,AACCAGTT,0.24
20,AGCGCCGG,0.174
21,GGCTAAGA,-0.0669
22,TACTGAAA,0.232
23,AGACATTG,-0.0765
24,ACGGAGTA,0.473
25,GCCCCGAC,-0.137

row,Sequence,PBM E-score
1,CGTACACC,0.0584
2,AAGCTCCC,-0.156
3,GGTTATGA,-0.00868
4,GGTGATCA,-0.0693
5,CAGGCTCA,-0.214
6,CCGACCTC,-0.0484
7,TGTGGGAA,-0.0897
8,AATCATTG,0.00081
9,CTCAGACA,-0.0135
10,AGCCTGAT,-0.0931
11,ATCGTCCA,-0.0391
12,ATACGCAC,-0.032
13,GGCGTCGA,-0.167
14,ACTAATGC,0.0803
15,AAGAACTG,-0.0472
16,ACGCCGTC,-0.105
17,CCCCACGG,-0.178
18,GGATTTAC,0.102
19,GAAGGTAA,0.122
20,CTCAGATC,-0.11
21,GAATCTCA,0.049
22,ATATCCTA,0.0827
23,CTCTTCTA,0.0562
24,ACGTGCGG,-0.0575
25,CACTATAG,0.111

row,Sequence,PBM E-score
1,GAGAAGGA,-0.0992
2,AGCTACTC,0.066
3,CCACGACC,-0.219
4,GCTACATA,-0.0371
5,CGGTCATC,-0.125
6,AGCCACTA,0.0177
7,AGCTCGGC,-0.00249
8,CACATTAC,0.0459
9,AAAATGGG,0.158
10,CAGCAAAC,-0.142
11,GATATGTA,0.22
12,CCCTACTA,-0.243
13,CGGCTCGC,0.0542
14,TTAGCGAA,0.0425
15,CATTGAAG,-0.0305
16,ACTTTTAT,0.267
17,GGGTAATA,-0.00685
18,ATCATTTG,0.162
19,TGGGTACA,-0.0505
20,TAGCGTGA,-0.0832
21,AATAAGAT,0.17
22,CGATACGA,-0.0883
23,ATGCTGAC,-0.0696
24,GAAGTAGA,0.12
25,ACAAGCAT,-0.138

row,Sequence,PBM E-score
1,AGCCACAG,-0.248
2,TCACTGCA,0.101
3,TAAACGGA,0.321
4,CGATGCTC,0.156
5,CCCCTACC,-0.258
6,ACAAAAAG,0.199
7,CAATTCCA,-0.032
8,CTTACTGA,-0.105
9,CGTTATGC,-0.106
10,CGGCCTAC,0.0389
11,ACTTTGTA,0.135
12,CCCGATAG,0.0429
13,ATCTACAC,0.0967
14,GTGCACAA,-0.0296
15,AGTACCGC,-0.0831
16,ATGGTCGG,0.0544
17,ATTGTCTG,0.0498
18,CAGAAAGC,0.0267
19,ACGTCGAA,-0.00337
20,GGTTTAAA,0.178
21,AAGTCCGT,0.487
22,CAATATAG,0.1
23,AGGCATAA,-0.0627
24,CTGCACTA,0.192
25,AACTCTGA,0.0904

row,Sequence,PBM E-score
1,AGATCTTG,-0.0225
2,ACTAGGAC,-0.095
3,GAAAGTGA,0.127
4,AACCAGAA,0.0654
5,AAATTACT,0.234
6,CTGCTAGC,-0.291
7,CTGAATTA,0.143
8,AGCGCAAT,0.0502
9,CCGACCAC,-0.114
10,TAGTAGGA,-0.0196
11,TCCAACAA,0.0199
12,ACTAACAA,0.0492
13,CGACGCCG,0.0167
14,AAAAGAGG,-0.0595
15,GAATTCGC,0.165
16,ATGCTCCA,-0.0644
17,AAGGACGA,-0.0622
18,CAATCTCG,-0.097
19,GACGTATC,-0.113
